± gives the standard deviation. The full ranking holds about 5,500 sequences; the median of “pre-steady-state target cleavage rate” is about 0.1, and the highest 2% start at about 0.64. The entries are a selection whose mix differs from that of the whole data set.
system: MIWI (PIWIL1) piRISC loaded with piRNA #2 (30 nt); experiment: pre-steady-state target cleavage rate (min^-1); MIWI and MILI are mouse PIWI proteins and EfPiwi is from a freshwater sponge; tags in brackets are library labels; higher = faster piRNA-guided slicing of the target; settings: guide: piRNA #2 5'p-UUAGGUAACCCAGUAGAUCCAGAGGAAUUC; auxiliary factor: 500 nM mouse GTSF1
How it was run: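 The pre-steady-state cleavage rate was obtained by Cleave-'n-Seq with a burst-and-steady-state fit. A transcribed, DNA-blocked target RNA library (0.1 nM) was mixed with 1 nM active affinity-purified piRISC carrying one synthetic guide, with or without 500 nM GTSF1 partner protein, in HEPES–potassium acetate buffer at 33 °C for 0–8 or 0–960 min. Uncleaved targets were sequenced and normalised to depth and to weakly complementary targets, with three trials pooled and k3 capped at 0.0001 min^-1.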

Sequence	pre-steady-state target cleavage rate
GAAUACCUCUGGAUCUACAGGGUUACCUAA	0.18 ± 0.026
CUUAAGCUCGUGGAUCUACUGGGUUACCUAA	0.0949 ± 0.019
CUAUUCCUCUGGAUCUACAGGCUUACCUAA	0.0271 ± 0.008
CUUAUCCUCUGGAUCUUCAGGGUUACCUAA	0.129 ± 0.017
CUUAUCCUCUGGAUCUAGUGGGUUACCUAA	0.196 ± 0.023
CUAUACCUCUGGAUCUACUGGGUUACCUAA	0.544 ± 0.084
CUUAAGCUCUGGAUCUACUCGGUUACGUAA	0.0999 ± 0.022
CAAUUCCUCUGGUUCUACUGGGUUAGCUAA	0.371 ± 0.041
CUUAACCAGUGGAUCUACUGGGUUACCUAA	0.352 ± 0.032
CUUUUCCUCUGGAACUACUGCGUUACCUAA	0.369 ± 0.042
CAAUUCCUCUGGACUACUGGGUUACCUAA	0.296 ± 0.043
GAAUACCUCUGGAUCUACUGGCUUACCUAA	0.107 ± 0.014
CUUUUCCUCUGAUCUACUGGGUUACCUAA	0.304 ± 0.036
CUUAAGGAGACCUAGAUGACGUGUUACCUAA	< 0.0001
CUUAAGGUCUGGAUCUUCUGCGUUACCUAA	0.104 ± 0.032
CUUAAGGACUCGAUCUACAGGGUUACCUAA	0.00845 ± 0.0026
CAAUUCCUCUGGAUCUACUGGGUUAGCAAA	0.151 ± 0.054
CUUAAGGAGUGGAUCUACUGGGUUUCCUAA	0.0187 ± 0.0043
CUAUUCCUCUGGAUGCUACUGGGUUACCUAA	0.335 ± 0.033
CAAUUCCUCUCGAUCUACUGGGUUACCUUA	0.69 ± 0.056
CUAUUCCUCUGGAUGUACUGGGUUACGUAA	0.533 ± 0.042
CUUAAGCUCAGGAUCUACUGGCUUACCUAA	0.056 ± 0.015
CUUAAGCACUGGAUCUACUGGCUUACCUAA	0.0537 ± 0.013

Sequence	pre-steady-state target cleavage rate
CAAUUCCUCUGGAUCUACUGGGUAACCAAA	0.177 ± 0.056
CUUUACCUCUGGAACUACUGGGUUACCUAA	0.41 ± 0.033
GUAUUCCUCUGGAUCUACUGGGUUACCAAA	0.178 ± 0.047
CUUAACCUCUGGAUACUACUGGGUUACCUAA	0.21 ± 0.029
CUAUACCUCUGGAUCUACUGGGAUACCUAA	0.299 ± 0.037
CUUAAGGUCUGGAUCUACUGGGAUACCAAA	0.0398 ± 0.016
CUUAAGCUCAUGGAUCUACUGGGUUACCUAA	0.166 ± 0.019
CUAUUCCUGUGGAUCUACUGGGUUACGUAA	0.47 ± 0.052
CUAUUCCUCUGCUACUACUGGGUUACCUAA	0.451 ± 0.039
CUUAUCCUCUGGAUCUACUGGGUUACGAAA	0.253 ± 0.05
GAAAUCGUCUGGAUCUACUGGGUUACCUAA	0.417 ± 0.064
GAAUUCCUCUGGAUCUACUGCGAUACCUAA	0.19 ± 0.044
CUUAAGGACUGGAUCUACUGGGUAUACCUAA	0.082 ± 0.05
CUUAAGGAGACCUUCUACUGGCGUUACCUAA	0.0131 ± 0.005
CUUAAGCUCUGGAUCUACUGGGUAUACCUAA	0.111 ± 0.023
CUUAAGGUCUGAAUCUACUGGGUUACCUAA	0.111 ± 0.016
CUUAAGGACUCGAUCUACUGGGUUACGUAA	0.13 ± 0.034
CUUUUCCUCUGGAUCUUGAGGGUUACCUAA	0.00876 ± 0.0062
CUUAUCCUCUGCAUGUACUGGGUUACCUAA	0.383 ± 0.027
CUAUACCACUGGAUCUACUGGGUUACCUAA	0.506 ± 0.047
CUUAAGCUCUUGAUCUACUGGGUUACCUAA	0.273 ± 0.03
GAAUUCCUCUGGAUCUACUGGGUUACCCUAA	0.269 ± 0.078
CAAUUCCUCUGGAUCUUCUGGGAUACCUAA	0.226 ± 0.031

Sequence	pre-steady-state target cleavage rate
CAAUUCCUCUGGAUGUUCUGGGUUACCUAA	0.389 ± 0.039
CUUAACCUCUGCAUCUAGUGGGUUACCUAA	0.147 ± 0.013
CUUAACCUCUGGAUCUAGAGGGUUACCUAA	0.0212 ± 0.0044
GAAAUCCUCUGGAUCUACUCGGUUACCUAA	0.0697 ± 0.016
CUUAAGCCUCUGGAUCUACUGGGUUACCUAA	0.169 ± 0.026
CUUAUCCUCUGGAUCUACAGGGUUAGCUAA	0.115 ± 0.023
CUUUUCCUGUGGAUCUACUGGGUUACCAAA	0.223 ± 0.04
GAAUUCCUCUGGAUGUACUGCGUUACCUAA	0.487 ± 0.069
CUUAAGGUCUGGAUCUACUGGGUUACCUAA [g2:g23:cont:t1A]	0.236 ± 0.031
CUUAUCCUCUGAGAUCUACUGGGUUACCUAA	0.33 ± 0.024
CAAAUCCUCUGGAUCUACUGGGUAACCUAA	0.23 ± 0.036
CUUAAGGAGUGGGUCUACUGGGUUACCUAA	0.0641 ± 0.01
CUUAACCACUGGAUCUACUGCGUUACCUAA	0.317 ± 0.037
CAAUUCCACUGGAACUACUGGGUUACCUAA	0.408 ± 0.042
CUUAACCUCUGGAUCUACAGGGUUACGUAA	0.134 ± 0.017
CUAUUUCCUCUGGAUCUACUGGGUUACCUAA	0.385 ± 0.054
CUUAAGGAGACGAUCUACACCGUUACCUAA	0.00447 ± 0.0029
CUUAAGGACUGGAUCAACUGGGUUACCUUA	0.0459 ± 0.035
GAAUUGCUCUGGAUCUACUGGCUUACCUAA	0.0382 ± 0.014
CUUAAGGUCGUGGAUCUACUGGGUUACCUAA	0.0811 ± 0.021
CUUUUUCUCUGGAUCUACUGGGUUACCUAA	0.169 ± 0.024
CUUUUCCUCUGGAUCUACUGGGUUACACUAA	0.496 ± 0.045
CUUAAGGAGAGCAUCUACUGCGUUACCUAA	0.00292 ± 0.0029

Sequence	pre-steady-state target cleavage rate
CUUAACCUCUGGAUCUACUGGCUUACCUUA	0.0446 ± 0.0088
CUUUUCCUCGGAUCUACUGGGUUACCUAA	0.395 ± 0.074
CUUAAGCUCUGGAUCAAGUGGGUUACCUAA	0.00498 ± 0.0043
CUAUAGGUCUGGAUCUACUGGGUUACCUAA	0.193 ± 0.029
CUUAAGGACUGGAUCUACUGGGUUAACCUAA	0.0999 ± 0.054
GAAUUCCUGUGGAUGUACUGGGUUACCUAA	0.34 ± 0.04
CUUAAGGUCUGGAUCUACAGGCUUACCUAA	0.0179 ± 0.0082
GAAUUCCUCUGGAUCUUCUGGGUUUCCUAA	0.234 ± 0.049
CUUAAGGACUGGAUCUACUGGGGUACCUAA	0.0349 ± 0.018
CUAUUCCUCAGGAUCUACUGGGUUACGUAA	0.499 ± 0.073
CUAUUCGUCUGGAUCAACUGGGUUACCUAA	0.209 ± 0.026
CUUAACCUCUGGAUCUACUGGGUUACCUUAA	0.2 ± 0.025
CUUAAGCUCUGGAUCUACUGAGUUACCUAA	0.486 ± 0.044
GAAAUCCUCUGGAUCUAGUGGGUUACCUAA	0.0805 ± 0.017
CAAUUCCUCUGGAUCUUCUGGCUUACCUAA	0.0168 ± 0.0075
CUUAAGGACUGGAUGUACUGGGUUAGCUAA	0.0745 ± 0.045
CUUUUACUCUGGAUCUACUGGGUUACCUAA	0.0983 ± 0.018
GAAUUCCACUGGAUGUACUGGGUUACCUAA	0.402 ± 0.033
CUUAUCGUCUGGAUCUACUGGGUUACCUUA	0.295 ± 0.066
CUUAUCGUCUGGAUCUACAGGGUUACCUAA	0.142 ± 0.025
CUAUUCCUCUGGAUCUAGUGGGUUAGCUAA	0.0581 ± 0.015
CUAUUCCUCUGGAUCAACUGGCUUACCUAA	0.0797 ± 0.015
GAAUUCCUCUGGAUCUACUGGGGUUACCUAA	0.0291 ± 0.0067

— the supplement of paper PMC10338343
